Results taken from the supplement of paper PMC4604168 (melanoma cell lines).
Some of the results follow. Single values are uncertain, as repeats are few or missing.

How the values were obtained:
Test in all cases: cell count relative to DMSO control; melanoma cells; higher = more viable cells
Details in all cases: library dose: low library concentration; 72 h
MZ2-MEL = test system: MZ2-MEL
MeWo = test system: MeWo
RPMI7951 = test system: RPMI7951
RVH-421 = test system: RVH-421
SkMel28 = test system: SkMel28
SkMel2 = test system: SkMel2
SkMel30 = test system: SkMel30
UACC62 = test system: UACC62
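Also: cell number obtained by counting DAPI-stained nuclei in high-throughput microscope images with image analysis software, screen run in 1,536-well plates.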

Row | Compound | cell count (MZ2-MEL) [%] | cell count (MeWo) [%] | cell count (RPMI7951) [%] | cell count (RVH-421) [%] | cell count (SkMel28) [%] | cell count (SkMel2) [%] | cell count (SkMel30) [%] | cell count (UACC62) [%]
1 | Cn1cnc2c(F)c(Nc3ccc(Br)cc3Cl)c(C(=O)NOCCO)cc21 [selumetinib] + C[C@]1(O)C[C@@H](c2nc(-c3ccc4ccc(-c5ccccc5)nc4c3)c3c(N)nccn32)C1 [OSI906] (first compound 0.015 µM, partner dose 0.4 µM) | 77.8 | 77.3 | 92.8 | 71.5 | 85.8 | 51.6 | 44.7 | 69.3
2 | CCN(CC)CCNC(=O)c1c(C)[nH]c(/C=C2\C(=O)Nc3ccc(F)cc32)c1C [sunitinib] + Nc1ncn([C@H]2C[C@H](O)[C@@H](CO)O2)c(=O)n1 [decitabine] (first compound 0.4 µM, partner dose 0.1 µM) | 91.9 | 77.9 | 103 | 91.9 | 80.1 | 114 | 92.5 | 72.8
3 | C[C@]1(O)C[C@@H](c2nc(-c3ccc4ccc(-c5ccccc5)nc4c3)c3c(N)nccn32)C1 + O=C(O)[C@@H]1[O][Sb](=[O])([O][Sb]2(=[O])[O][C@H]([C@H](O)CO)[C@H](O)[C@H](C(=O)O)[O]2)[O][C@H]([C@H](O)CO)[C@@H]1O [stibogluconate] (first compound 0.4 µM, partner dose 2 µM) | 90.8 | 99.8 | 93.2 | 84 | 96.5 | 84.5 | 89.5 | 103
4 | C[C@]1(O)C[C@@H](c2nc(-c3ccc4ccc(-c5ccccc5)nc4c3)c3c(N)nccn32)C1 + OCc1c[nH]c2ccccc12 [Indole-3-carbinol] (first compound 0.4 µM, partner dose 0.8 µM) | 92.7 | 86.1 | 84.2 | 98.6 | 88.3 | 85.8 | 106 | 81.5
5 | Cn1cnc2c(F)c(Nc3ccc(Br)cc3Cl)c(C(=O)NOCCO)cc21 [selumetinib] + C#Cc1cccc(Nc2ncnc3cc(OCCOC)c(OCCOC)cc23)c1 [erlotinib] (first compound 0.015 µM, partner dose 0.8 µM) | 97.3 | 86.3 | 97.8 | 93.4 | 65.3 | 76.5 | 55.2 | 73
6 | COc1cc([C@@H]2c3cc4c(cc3[C@@H](O[C@@H]3O[C@@H]5CO[C@@H](C)O[C@H]5[C@H](O)[C@H]3O)[C@H]3COC(=O)[C@H]23)OCO4)cc(OC)c1O [etoposide] + COCC[n+]1c2c(n(Cc3cnccn3)c1C)C(=O)c1ccccc1C2=O [YM155] (first compound 0.02 µM, partner dose 0.0004 µM) | 64.8 | 88.7 | 98.6 | 110 | 91.8 | 85.2 | 83.6 | 72.5
7 | CCN(CC)CCNC(=O)c1c(C)[nH]c(/C=C2\C(=O)Nc3ccc(F)cc32)c1C [sunitinib] + C[C@]1(c2nc3c(C(N)=O)cccc3[nH]2)CCCN1 [Veliparib] (first compound 0.4 µM, partner dose 1.4 µM) | 104 | 91 | 92.7 | 118 | 81.7 | 105 | 64.4 | 82.2
8 | C[C@]1(O)C[C@@H](c2nc(-c3ccc4ccc(-c5ccccc5)nc4c3)c3c(N)nccn32)C1 + COc1ccc(Cl)c(Nc2nc3ccccc3nc2NS(=O)(=O)c2cccc(NC(=O)C(C)(C)N)c2)c1 [XL147] (first compound 0.4 µM, partner dose 0.8 µM) | 92 | 94.7 | 107 | 99.9 | 95.7 | 96.8 | 74.9 | 101
9 | Cn1cnc2c(F)c(Nc3ccc(Br)cc3Cl)c(C(=O)NOCCO)cc21 [selumetinib] + CS(=O)(=O)c1ccc(C(=O)Nc2ccc(Cl)c(-c3ccccn3)c2)c(Cl)c1 [vismodegib] (first compound 0.015 µM, partner dose 1 µM) | 91.8 | 83.5 | 96.5 | 108 | 95.6 | 89.2 | 82.3 | 81.7
10 | COc1cc([C@@H]2c3cc4c(cc3[C@@H](O[C@@H]3O[C@@H]5CO[C@@H](C)O[C@H]5[C@H](O)[C@H]3O)[C@H]3COC(=O)[C@H]23)OCO4)cc(OC)c1O [etoposide] + C[C@]1(O)C[C@@H](c2nc(-c3ccc4ccc(-c5ccccc5)nc4c3)c3c(N)nccn32)C1 [OSI906] (first compound 0.02 µM, partner dose 0.4 µM) | 85.4 | 89.3 | 87.7 | 93.2 | 81.5 | 79.7 | 77.3 | 82.7
11 | CCN(CC)CCNC(=O)c1c(C)[nH]c(/C=C2\C(=O)Nc3ccc(F)cc32)c1C [sunitinib] + C#Cc1cccc(Nc2ncnc3cc(OCCOC)c(OCCOC)cc23)c1 [erlotinib] (first compound 0.4 µM, partner dose 0.8 µM) | 101 | 76.9 | 78.3 | 114 | 90.5 | 114 | 64 | 78.8
